Test system: neonatal mice (10-day old) subjected to hypoxic-ischemic (HI) injury
Test: Infarct volumes in neonatal mice after HI injury treated with n-3 DG or TG emulsions or protectins (Example 2, FIG. 3 and 4)
Procedure: FIG. 3. Infarct volumes in neonatal mice (10-day old) subjected to hypoxic-ischemic (HI) injury and treated with saline as vehicle, n-3 triglyceride (TG), n-3 diglyceride (DG) emulsions. n=15-17. Values are means with SD. Dose=0.375 mg/g bw.
FIG. 4. […] Values are means with SD.
Acute treatment with triglyceride lipid emulsions containing both EPA and DHA or DHA alone (tri-DHA) provides neuroprotection after hypoxic-ischemic brain injury by acting within the initial minutes/hours of reperfusion. […] The neuroprotection afforded by tri-DHA acute administration was also associated with increased content of DHA in brain mitochondria and of DHA-derived bioactive mediators, such as neuroprotectin D1 (NPD1) and D-series resolvins, in cerebral tissue. Thus, the neuroprotective action afforded by direct administration of NPD1 after hypoxic-ischemic injury was further investigated.
Values are means with SD. Reductions in infarct volume were dose-dependent.

| SMILES | mitochondria-related cell death pathways (after hypoxic-ischemic injury) | mitochondrial Ca2+ buffering capacity (after hypoxic-ischemic injury) | cerebral infarct volumes (direct administration after hypoxic-ischemic injury, compared to the control group) | reductions in infarct volume (5, 10 or 20 ng per animal, FIG. 4) | neuroprotection (decreasing infarct size after hypoxic-ischemic brain injury), concentration needed relative to D1 derived from DHA (FIG. 4) |
| --- | --- | --- | --- | --- | --- |
| CC/C=C\C[C@H](O)\C=C/C=C/C=C/[C@H](O)C/C=C\C/C=C\CCC(=O)O [NPD1, neuroprotectin D1] | reduced mitochondria-related cell death pathways | preserved mitochondrial Ca2+ buffering capacity | significant reduction in cerebral infarct volumes | – | – |
| CC/C=C\C[C@H](O)\C=C/C=C/C=C/[C@H](O)C/C=C\CCCCCC(=O)O [PD1 n-3 DPA] | – | – | – | dose-dependent | at lower concentrations than neuroprotection D1 derived from DHA |

Source: patent US20240050391A1, “COMPOSITIONS AND METHODS FOR NEUROPROTECTION IN NEONATAL HYPOXIC-ISCHEMIC ENCEPHALOPATHY” (The Trustees of Columbia University in The City of New York, priority 2020, published 2024)
